From paper PMC4336329 (PLoS ONE, 2015)
In all, about 310,000 compounds went through this assay and about 14,000 (4.5%) showed an effect of 50% or more. Effects have a minus sign here. This is one part of the list.

What follows are compounds tested against human ether-à-go-go-related gene (hERG) potassium channel (human, UniProt Q12809) (assay: primary screen, population patch clamp on CHO cells stably expressing hERG).
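Also: peak tail current of the secondary pulse compared with the same well before compound.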

human ether-à-go-go-related gene (hERG) potassium channel, sequence (Q12809 whole entry, looked up): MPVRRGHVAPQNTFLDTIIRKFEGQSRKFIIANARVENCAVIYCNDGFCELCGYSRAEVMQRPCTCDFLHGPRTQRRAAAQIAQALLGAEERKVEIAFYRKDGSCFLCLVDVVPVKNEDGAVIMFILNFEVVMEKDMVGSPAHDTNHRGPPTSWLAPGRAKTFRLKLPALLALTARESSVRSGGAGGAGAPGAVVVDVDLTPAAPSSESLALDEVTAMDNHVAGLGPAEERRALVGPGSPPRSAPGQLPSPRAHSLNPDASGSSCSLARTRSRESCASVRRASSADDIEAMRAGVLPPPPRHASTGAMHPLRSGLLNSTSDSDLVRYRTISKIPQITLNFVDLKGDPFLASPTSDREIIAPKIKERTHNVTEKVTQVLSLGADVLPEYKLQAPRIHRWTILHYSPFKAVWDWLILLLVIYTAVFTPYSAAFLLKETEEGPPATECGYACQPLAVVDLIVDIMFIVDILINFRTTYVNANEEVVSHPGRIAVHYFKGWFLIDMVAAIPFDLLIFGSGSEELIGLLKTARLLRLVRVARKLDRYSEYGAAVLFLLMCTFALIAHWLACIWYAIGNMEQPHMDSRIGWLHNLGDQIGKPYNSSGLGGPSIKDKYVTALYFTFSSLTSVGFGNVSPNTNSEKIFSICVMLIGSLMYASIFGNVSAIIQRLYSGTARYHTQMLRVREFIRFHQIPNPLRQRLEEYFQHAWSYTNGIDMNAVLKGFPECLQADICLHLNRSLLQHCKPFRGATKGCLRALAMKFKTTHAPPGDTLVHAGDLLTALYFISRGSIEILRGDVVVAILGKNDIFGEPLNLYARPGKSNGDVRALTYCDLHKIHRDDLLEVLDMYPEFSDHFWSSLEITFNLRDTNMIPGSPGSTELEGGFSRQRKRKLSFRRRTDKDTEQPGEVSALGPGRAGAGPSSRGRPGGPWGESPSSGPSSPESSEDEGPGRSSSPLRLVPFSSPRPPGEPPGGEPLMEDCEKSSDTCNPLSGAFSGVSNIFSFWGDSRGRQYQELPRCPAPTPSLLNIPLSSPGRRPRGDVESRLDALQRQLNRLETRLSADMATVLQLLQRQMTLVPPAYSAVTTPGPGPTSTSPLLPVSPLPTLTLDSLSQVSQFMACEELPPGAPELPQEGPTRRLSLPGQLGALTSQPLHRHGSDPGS

| SMILES | hERG current change (%, negative = inhibition) at 10uM [%] |
| --- | --- |
| CCOC(=O)c1c(N)sc(=S)c2c1CCC2 | 0.392 |
| COC(=O)c1ccccc1NC(=O)c1ccnn1C | 10.4 |
| Cc1nnc(SCC(=O)NCCN2C(=O)CSC2=O)n1-c1ccccc1 | 15.4 |
| CCOC(=O)c1nc(-c2ccccc2)oc1N1CCOCC1 | -18.9 |
| N#C/C(=C\Nc1ccc(Cl)cn1)S(=O)(=O)c1ccccc1 | 2.13 |
| CC(C)n1cc(NC(=O)c2cc(-c3ccccc3)on2)cn1 | -32.6 |
| COC(=O)c1c(NC(=O)C2COc3ccccc3O2)sc2c1CCN(C(C)=O)C2 (stereo not drawn) | -45.1 |
| COc1ccc(CCN(C)C(=O)CNC(=O)c2ccccc2F)cc1OC | 9.4 |
| COc1ccc2oc(C(=O)OCC(=O)c3ccc4c(c3)OCCO4)c(C)c2c1 | 18.2 |
| COc1ccc(N2CCN(C(=O)c3ccc(CNS(=O)(=O)c4ccc(C)cc4)cc3)CC2)cc1 | 13.9 |
| S=c1[nH]nc(C2CC2)n1Cc1ccco1 | 3.93 |
| COc1cc2c(cc1OC)CN(CC(O)c1ccccc1)CC2 (stereo not drawn) | 14.4 |
| COc1cc(NC(=O)c2cc(C3CC3)on2)c(OC)cc1Cl | -2.28 |
| Cc1cc(C)c2c(c1)N[C@H](c1cccs1)[C@@H]1CCO[C@H]21 | -5.78 |
| CCOC(=O)C(CCCCP(=O)(c1ccccc1)c1ccccc1)(NC(C)=O)C(=O)OCC | -12.1 |
| O=[N+]([O-])c1ccc(-c2n(-c3ccccn3)c3ccccc3[n+]2-c2ccccn2)cc1.[I-] | -24.1 |
| CCc1ccc(N(CC(=O)NCc2ccc(OC)cc2)C(=O)CCC(=O)Nc2ccccn2)cc1 | -42.3 |
| CCC(C)N1C(=O)N(c2cccc(Cl)c2)C(C)(O)CC1(C)C (stereo not drawn) | 3.31 |
| O=C(O)c1cccc(C(=O)Nc2cccc(NC(=O)C3CCCO3)c2)c1 (stereo not drawn) | 23.1 |
| Cn1nc(C(=O)NCc2ccccc2)c2c1-c1ccccc1S(=O)(=O)C2 | -33.4 |
| COc1cc2ccccc2cc1C(=O)Nc1ccc(O)cc1 | 2.49 |
| O=C(N/C(=C/c1ccc2c(c1)OCO2)C(=O)N1CCOCC1)c1cccs1 | 9.12 |

| SMILES | hERG current change (%, negative = inhibition) at 10uM [%] |
| --- | --- |
| O=C(CC1OC(=O)c2ccccc21)Nc1cc(S(=O)(=O)N2CCOCC2)ccc1OCC(F)(F)F (stereo not drawn) | -52.2 |
| Cc1ccc(C(C)(C)C)cc1S(=O)(=O)NC(=O)c1ccccc1 | 17 |
| O=C(c1ccccc1F)N(Cc1ccccc1)C1CCS(=O)(=O)C1 (stereo not drawn) | 3.86 |
| O=C(Cn1cnc2scc(-c3ccc(F)cc3)c2c1=O)N1CCOCC1 | 4.91 |
| CC(C(=O)Nc1ccc(Br)cc1C(=O)c1ccccc1)N1CCOCC1 (stereo not drawn) | -58.6 |
| CN(Cc1ccccc1)C(=O)CCCn1c(=O)c2cccn2c2cccnc21 | -32.3 |
| O=C1CCC/C1=C\Nc1ccc(Cl)c([N+](=O)[O-])c1 | 7.12 |
| COc1ccc(CC(=O)N/N=C/c2cccn2-c2ccc([N+](=O)[O-])cc2)cc1OC | -37.9 |
| COc1cccc(-c2cc(C(=O)Nc3cc(C)nn3-c3ccccc3)no2)c1 | 6.19 |
| Cc1[nH]c(=S)[nH]c(=O)c1Cc1ccc(OCC(C)C)cc1 | 5.14 |
| Cc1cccc(NC(=O)c2cc(=O)c3ccccc3o2)c1 | 18.3 |
| CC(=O)C1=C(O)C(=O)N(Cc2cccnc2)C1c1ccc(O)cc1 (stereo not drawn) | 14.5 |
| O=C(Nc1nc2ccccc2s1)c1cc(-c2ccco2)nc2ccccc12 | 4.78 |
| CC(=O)Nc1ccc(S(=O)(=O)N2CCCCC2c2cccnc2)cc1 (stereo not drawn) | 2.45 |
| CC1(C)Cc2ccccc2C(N/N=C/c2cccc(F)c2)=N1.Cl | -19.6 |
| CCN(CC(=O)Nc1ccccc1C(F)(F)F)C(=O)/C=C/c1ccc(Cl)c([N+](=O)[O-])c1 | 10.1 |
| O=C(CN1C(=O)CCC1=O)NC(=O)NC1CCCC1 | 5.2 |
| CCOc1ccc(NC(=O)C2CC(=O)N(Cc3ccco3)C2)cc1 (stereo not drawn) | 7.34 |
| Cc1ccc(C)c(OCCC(=O)OCC(=O)NC(=O)NCc2ccccc2)c1 | 4.16 |
| CC/C(=C\C(=O)c1ccncc1)Nc1ccc(Br)cc1 | -34.9 |
| Cc1ccc(C)c(NC(=S)Nc2cccc3cnccc23)c1 | 3.91 |
| COc1cc2nc(NC(=O)c3ccc(Cl)cc3)[nH]c(=O)c2cc1OC | 3.94 |

| SMILES | hERG current change (%, negative = inhibition) at 10uM [%] |
| --- | --- |
| Cc1ccc(N2CCN(C(=O)c3cc(COc4c(C)cccc4C)on3)CC2)c(C)c1 | 11.1 |
| CN1C(=O)N(C)C(=O)C2(Cc3cc(NC(=O)c4ccccc4Cl)ccc3N3CCCC32)C1=O (stereo not drawn) | 10.4 |
| CC1(C)CC(NC(=O)c2ccc3c(c2)OCO3)CC(C)(C)N1 | 4.65 |
| CC(=O)OCc1nc2ccccc2s1 | 12 |
| CC(=O)C1=C(O)C(=O)N(CCc2c[nH]c3ccccc23)C1c1ccccc1 (stereo not drawn) | 15.6 |
| COC(=O)c1cc(S(=O)(=O)Nc2cc(OC)cc(OC)c2)cn1C | 1.12 |
| CC(n1cnnn1)C12CC3CC(CC(C3)C1)C2 (stereo not drawn) | -10.7 |
| CCCCCOc1ccc(N2C(=O)C3C4C=CC(C3C2=O)N(C)C4=O)cc1 (stereo not drawn) | -31.2 |
| O=C(O)Cc1sc(-c2ccccc2Cl)nc1-c1ccccc1 | -6.72 |
| Cc1cc2ccccc2c(=O)n1CC(=O)NCC(=O)N1CCN(c2ccccc2F)CC1 | 1.63 |
| O=C(N/N=C/c1c(O)n(Cc2ccccc2)c(=O)c2ccccc12)c1cccnc1 | 17.1 |
| CN(C)/C=C/C(=O)c1c(F)cccc1F | 8.69 |
| CC(C)c1nc(C#N)c(N2CCOCC2)o1 | 6.32 |
| CN(C(=O)COC(=O)C(C)(C)Oc1ccc(Cl)cc1)c1c(N)n(Cc2ccccc2)c(=O)[nH]c1=O | 7.38 |
| COc1cccc(CNCCc2c[nH]c3ccccc23)c1OCc1ccccc1.Cl | -47 |
| Nc1nc(SCC(=O)c2ccc([N+](=O)[O-])cc2)n[nH]1 | -1.82 |
| N#Cc1c(-c2cccc(Cl)c2)[nH]c(=S)[nH]c1=O | 33.5 |
| CCOC(=O)Cn1nnnc1CN(Cc1ccc(OC)cc1)Cc1cc2cc(CC)ccc2[nH]c1=O | -27 |
| Cc1ccc(C2(c3ccccc3)NC(=O)N(CC(=O)NC3CCS(=O)(=O)C3)C2=O)cc1C (stereo not drawn) | -9.17 |
| CSCCC(NC(N)=O)C(=O)Nc1ccc(C)cc1 (stereo not drawn) | 28.1 |
| Cc1ccccc1OCCOC(=O)c1c(-c2ccccc2)noc1C | 3.13 |
| COC(=O)Cn1c(C(=O)N2CCCC2)cc2c1C[C@H]1CN(C(=O)c3ccccc3)[C@@](Cc3ccc(F)cc3)(C(=O)OC)[C@@H]21 | -67.4 |

| SMILES | hERG current change (%, negative = inhibition) at 10uM [%] |
| --- | --- |
| O=C(CN1C(=O)COc2ccccc21)NCCCN1CCCCC1 | 12 |
| Cc1cc(C(=O)N(C)C2CCCCC2)no1 | 11.7 |
| CCN(C(=O)CSc1ncccc1C(=O)O)C1CCCCC1 | 31.9 |
| Cc1cc(-n2nc(C)cc2C)nc(NS(=O)(=O)c2ccccc2Cl)n1 | 1.72 |
| Cc1ccccc1[C@@]1(C)ON(c2ccccc2C(F)(F)F)C1=O | 0.704 |
| CCOC(=O)N1CCN(C(=O)c2c[nH]c3ccc(S(=O)(=O)N(C)c4ccc(OCC)cc4)cc3c2=O)CC1 | 3.77 |
| COc1nc(N=C(N)N)nc2c(C)cccc12 | -2.93 |
| CNC(=O)c1c(NC(=O)C2=COCCO2)sc(C)c1C | 14.7 |
| NC(=O)C1CCN(c2oc(-c3ccccc3)nc2S(=O)(=O)c2ccc(Br)cc2)CC1 | -55.9 |
| CCNC(=O)C1CC(=O)N(Cc2ccc3c(c2)OCO3)C(=Nc2ccc(OCC)cc2)S1 (stereo not drawn) | -0.331 |
| O=C(NC1=NCCS1)c1cccc(S(=O)(=O)N2CCOCC2)c1 | -0.218 |
| N#Cc1ccc(C23CC4(C2)[C@H](CN(Cc2ccc(-c5ccccc5)cc2)[C@@H]4c2ccccc2)C3c2ccccc2)cc1 (stereo partly drawn) | 14.5 |
| CCCCn1c(N)c(N(CC(C)C)C(=O)c2oc3ccc(Br)cc3c2C)c(=O)[nH]c1=O | -17.7 |
| Cc1oc2c(CN3CCOCC3)c(O)ccc2c(=O)c1-c1ccc(Br)cc1 | -23.3 |
| CCCCn1c(=O)c(C(C)=O)c(O)c2ccccc21 | 3.22 |
| c1ccc(C(c2ccccc2)N2CCN(c3nc4ccccc4n4cnnc34)CC2)cc1 | -2.17 |
| CCC1Sc2ccccc2N(CC(=O)NC2CCCCC2)C1=O (stereo not drawn) | -11 |
| C=C(C(=O)c1ccccc1)C(C)C(=C)C(=O)c1ccccc1 | 12.8 |
| O=C1CC(c2ccccc2Cl)=NN(c2ncnc3ccccc23)C1=O | 14.2 |
| O=C(O)/C=C/C(=O)Nc1ccc2c(c1)NC(=O)CO2 | 13.9 |
| O=C(COC(=O)Cc1ccccc1F)Nc1cc(S(=O)(=O)N2CCOCC2)ccc1N1CCCC1 | -26.9 |
